Source: PubChem BioAssay (Tox21)
This list was built around the results that the source calls inconclusive (neither active nor inactive); the mix of calls is not that of the screen. Where the call is inconclusive, the potency comes from a doubtful curve fit. Active and inactive are the calls of the source. Calls follow the shape of the dose curve; as a rule, active = well fitted activation curve with a large enough effect in the repeat runs; inconclusive = weak or mixed curves, or effect the other way; inactive = no such curve, though single readings can be large or run the other way. Bridge positions count the residues as written; N and C are the ends. Square brackets hold non-standard residues; d marks the D form. Peptide text beside a SMILES is read from it. hArg = N=C(N)NCCCC[C@H](N)C(=O)O; Mpa = O=C(O)CCS
% is scaled to controls: 0 for no effect and ±100 for the full control effect; potency is read from the fitted curve at half-maximal effect; tags tell the direction and shape of the fitted curve.

Test: qHTS assay to identify small molecule agonists of the retinoic acid receptor (RAR) signaling pathway (AID 1159553)
Conditions: C3RL4 RARE luciferase reporter, agonist, 6 h; activation: at 73.3 µM (top of the series) unless noted
In short: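 Seed C3RL4 reporter cells at 1,000 per well and incubate overnight at 37 C. Add compounds in DMSO, incubate 6 hr. Add luciferase reagent, wait 30 min at room temperature, read luminescence.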
With C=C(C)C(=O)OCCOCCOCCOCCOC(=O)C(=C)C the activation was inconclusive: 1.31% [phenotype inactive]. In the case of C=CCCCCCCCCCCCCCCCC, the activation is reported as inactive: -0.865% [at 8.36 µM]. With CCC(CC)C(C)CCOC(C)=O (stereo not drawn) the Potency was “inactive”. For O=C(O)CC(C(=O)O)S(=O)(=O)O (stereo not drawn), the Potency was inconclusive: 13.7 µM [inhibitor, full curve, poor fit]. For CC(=O)Oc1c(C)c(C)c2c(c1C)CC[C@@](C)(CCC[C@H](C)CCC[C@H](C)CCCC(C)C)O2, the Potency was inconclusive: 43.3 µM [inhibitor, partial curve]. In the case of CCCc1c2oc(C(=O)O)cc(=O)c2cc2c(=O)cc(C(=O)O)n(CC)c12, the Potency is reported as inconclusive: 33.5 µM [activator, partial curve, poor fit]. With CCCCCC[C@@H](O)C/C=C\CCCCCCCC(=O)OC the Potency was inconclusive: 68.9 µM [activator, single point]. In the case of CC(C)COC(=O)c1ccc(O)cc1, the Potency is reported as inconclusive: 15.3 µM [activator, full curve, poor fit]. With SCCc1cnccn1 the Potency was inconclusive: 77 µM [activator, partial curve, poor fit]. In the case of NCC1CCCC(CN)C1 (stereo not drawn), the Potency is reported as “inactive”. For O=C1c2ccccc2C(=O)C1c1nc2ccccc2c(Br)c1O, the Potency was active: 24.3 µM. In the case of CCCCCCCC/C=C\CCCCCCCC(=O)OC[C@@H](O)[C@H]1OC[C@H](O)[C@H]1O, the Potency is reported as “inactive”. For Cc1ccc(C(=O)O)cc1, the Potency was “inactive”. With CCSC(=O)N(CC(C)C)CC(C)C the Potency was “inactive”. In the case of COC(=O)c1ccccc1O, the Potency is reported as inconclusive: 30.7 µM [inhibitor] and inactive. In the case of CCOC(=O)c1ccc(NC(=O)CN2CCCCC2)cc1, the Potency is reported as active: 21.1 µM. In the case of CC(C)CC(C)CC(C)CC(C)COC(=O)c1ccccc1C(=O)OCC(C)CC(C)CC(C)CC(C)C (stereo not drawn), the Potency is reported as inconclusive: 71.4 µM [activator, partial curve, poor fit]. For Nc1cccc2c(N)cccc12, the Potency was active: 19.3 µM. With Nc1nc(-c2ccc([N+](=O)[O-])cc2)cs1 the Potency was inconclusive: 15.5 µM [activator, partial curve]. For ClC/C=C/CCl, the Potency was inconclusive: 68 µM [activator]. With COc1cc2c(cc1OC)C(C(C(=O)N(CCc1ccc(OC)c(OC)c1OC)CCc1ccc(OC)c(OC)c1OC)c1ccccc1)=NCC2 (stereo not drawn) the Potency was “inactive”. With CCN(CC)C(=O)/C(C#N)=C/c1cc(O)c(O)c([N+](=O)[O-])c1 the Potency was inconclusive: 29.8 µM [activator]. For Nc1ccc(F)cc1, the Potency was “inactive”. With Cc1cc(O)ccc1N the Potency was inconclusive: 54.8 µM [activator, partial curve]. With CCCCCCCCCCN the activation was inconclusive: 0.224% [phenotype inactive] [at 94.8 µM]. For Cc1cccc(N(C)C(=S)Oc2ccc3c(c2)C2CCC3C2)c1 (stereo not drawn), the Potency was inconclusive: 13.3 µM [activator, partial curve]. In the case of OCC(F)(F)F, the Potency is reported as inconclusive: 81 µM [inhibitor, single point]. With c1ccc(CNCc2ccccc2)cc1 the Potency was “inactive”. In the case of Cc1ccc2c(ccc3ccccc32)c1, the Potency is reported as inconclusive: 61.3 µM [activator, partial curve]. With O=Cc1cccc(Br)c1 the Potency was inconclusive: 70.3 µM [activator]. In the case of NNc1nc(-c2ccccc2)cs1, the Potency is reported as active: 70.5 µM. For OCCNCCO, the Potency was inconclusive: 61.1 µM [activator, partial curve, poor fit]. With CCN(CCC#N)c1ccc(N=Nc2c(Cl)cc([N+](=O)[O-])cc2Cl)cc1 the Potency was inconclusive: 30.6 µM [activator, partial curve, poor fit]. With NC(=O)[C@@H]1CSSCCC(=O)N[C@@H](CCCCN=C(N)N)C(=O)NCC(=O)N[C@@H](CC(=O)O)C(=O)N[C@@H](Cc2c[nH]c3ccccc23)C(=O)N2CCC[C@H]2C(=O)N1 ([Mpa][hArg]GDWPC-NH2; disulfide 1-7) the Potency was “inactive”. For COc1cc(C)c(Cc2cnc(N)nc2N)cc1OC, the Potency was inconclusive: 33.5 µM [inhibitor, single point]. With O=C(O)CCC(=O)c1ccc(-c2ccccc2)cc1 the Potency was active: 11.9 µM. In the case of CC(C)N=C=NC(C)C, the Potency is reported as “inactive”. With CCOC(=O)/C=C\C(=O)OCC the activation was inconclusive: -0.423% [phenotype inactive] [at 94.8 µM].
